# Results reported in PubChem BioAssay AID588855 (National Center for Advancing Translational Sciences (NCATS), 2011).
# Screen size: about 410,000 compounds; about 5,000 (1.2%) were called active. Inconclusive means that the source gave no clear call. Such entries were picked first, then a sample of the others. Calls come from the whole dose curve; as a rule, active = well fitted inhibition curve with a large enough effect; inconclusive = small, poorly fitted or top-dose-only effect; inactive = no such curve, though single readings can be large or run the other way. Potencies beside an inconclusive call are fits to weak or partial responses and may not hold up.
# Test: qHTS for Inhibitors of TGF-b; note: nearly all actives have a fitted effect of over 65% in size
# Details: HepG2 CAGA-GFP TGF-b/SMAD3 reporter, GFP fluorescence, 18 h, TGF-beta stimulated, 500 pg/mL final; series mostly up to 46.1 µM
# Method in brief: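 HEPG2 CAGA-GFP, 1000 cells/well; 2 h settle, 37 C; cpd via pin tool; TGF-b 500 pg/mL final; 18 h, 37 C; GFP imaging ex488/em500-530; %Activity normalised to -TGF-b and +DMSO controls; CRC fit, curve class.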
# Potency is the fitted concentration of half-maximal effect; tags give direction and shape of the fitted curve.
row,Structure (SMILES),Potency
1,CCCn1c(SCC(=O)NCCc2ccc(Cl)cc2Cl)n[nH]c1=O,inactive
2,O=C(Cc1ccc(-c2ccccc2)cc1)NCc1ccccc1,"inconclusive: 0.112 µM [inhibitor, full curve, poor fit]"
3,COc1cc(OC)cc(C(=O)NCc2cccnc2)c1,inactive
4,COc1cccc(C(=O)CN2CCN(S(=O)(=O)c3ccc(Cl)cc3)CC2)c1,"inconclusive: 8.91 µM [inhibitor, partial curve, poor fit]"
5,COc1cccc(Cc2nc3ccccc3nc2SCC(=O)N2CCCCC2C)c1 (centres undefined),active: 11.2 µM
6,CCOC(=O)c1c(-c2ccc(C)o2)csc1NC(=O)CN1CCN(CC)CC1,inactive
7,O=C1CCCCC1(c1ccccc1)c1ccccc1,"inconclusive: 1.12 µM [inhibitor, full curve, poor fit]"
8,COc1ccc(C2C3C=CCC(c4cccc(-c5ccc(N(C)C)cc5)c4)C3C(=O)N2Cc2ccccc2)cc1Cl (centres undefined),inactive
9,Cc1cc(SCC(=O)c2ccc(O)c(O)c2)n2nc(C)c(-c3ccccc3)c2n1,active: 17.8 µM
10,CC(C)(C(=O)N1CCC1(C)C(=O)NS(=O)(=O)c1cccc(C#N)c1)c1ccccc1 (centres undefined),inactive
11,CCc1nc(OCc2ccccc2)c2sc3nc4c(cc3c2n1)COC(C)(C)C4,inactive
12,COc1cc(C(O)c2nc(-c3ccccc3)cs2)ccc1F (centres undefined),inactive
13,COc1cc2c(C(=O)N3CCN(c4cccc(C)c4)C(C)C3)cn(CC(C)C)c(=O)c2cc1OC (centres undefined),"inconclusive: 17.8 µM [inhibitor, partial curve, poor fit]"
14,O=C(c1cccc(F)c1)N1CCN(S(=O)(=O)c2ccccc2)CC1,"inconclusive: 3.16 µM [inhibitor, single point]"
15,O=C1NC[C@H](Cc2ccccc2)N(CC2CCN(CCC34CC5CC(CC(C5)C3)C4)CC2)C1=O,inactive
16,COc1ccccc1NC(CC(=O)c1ccccc1)C(=O)OCC(=O)c1ccc(Br)cc1 (centres undefined),inactive
17,COc1ccc(Cl)cc1NC(=O)c1cc(S(=O)(=O)N2CCc3ccccc32)cn1C,inactive
18,Cc1ccc(Cl)c2c1NC(=O)C2=O,"inconclusive: 3.16 µM [inhibitor, partial curve, poor fit]"
19,Cc1noc(C)c1NC(=O)N(C)C[C@H]1Oc2ccc(NC(=O)Cc3ccccc3)cc2C(=O)N([C@H](C)CO)C[C@@H]1C,inactive
20,CCCCNC(=O)c1nc(C2CCN(S(=O)(=O)c3cccc(C(F)(F)F)c3)CC2)oc1-c1ccccc1,"inconclusive: 0.562 µM [inhibitor, full curve, poor fit]"
21,ClN=C1C=CC=CC1=NCl,"inconclusive: 35.5 µM [inhibitor, single point]"
22,Cn1c(/C=C/c2ccc(Br)cc2)c([N+](=O)[O-])c(=O)n(C)c1=O,"inconclusive: 25.1 µM [inhibitor, single point]"
23,CC(C)(C)c1ccccc1NC(=O)Nc1nc(C(N)c2ccccc2)cs1 (centres undefined),"inconclusive: 14.1 µM [inhibitor, single point]"

row,Structure (SMILES),Potency
1,O=C(N/N=C/c1ccsc1)c1c[nH]c2ccccc12,inactive
2,O=S(=O)(NCC(Nc1ccccc1)c1ccccc1)c1ccc(Cl)cc1 (centres undefined),active: 10 µM
3,COc1ccc(CCN(C(=O)C(F)(F)F)C(C(=O)NC2CCCC2)c2cccs2)cc1 (centres undefined),"inconclusive: 35.5 µM [inhibitor, single point]"
4,CC1C(=O)N(Cc2cn(CC3CCCCC3)nn2)CCS(=O)(=O)N1Cc1ccc(-c2ccccc2)cc1 (centres undefined),"inconclusive: 35.5 µM [inhibitor, single point]"
5,Cn1c(=O)n(C)c2cc(NC(=O)COc3ccc(F)cc3)ccc21,inactive
6,CN(C)c1nc(N)nc(CSc2nc3cc(Cl)ccc3o2)n1,"inconclusive: 0.631 µM [inhibitor, partial curve, poor fit]"
7,O=C(CC1SC(=O)N(c2ccccc2)C1=O)Nc1ccc(Cl)cc1 (centres undefined),inactive
8,CCCN1C(C(=O)c2ccccc2)=C(OC(=O)c2ccc(F)cc2)c2ccccc2S1(=O)=O,active: 17.8 µM
9,CCOc1ccccc1-c1noc(CCC(=O)NC2CCCCC2)n1,inactive
10,CCOc1ccc(-c2cn3c(n2)sc2cc(C(=O)NCCc4ccc(OC)cc4OC)ccc23)cc1,inactive
11,O=S(=O)(NCCc1csc2nc(-c3ccccc3)nn12)c1cccs1,"inconclusive: 35.5 µM [inhibitor, single point]"
12,Cc1ccc(NC(=O)c2ccc(OC(=O)c3cc4ccccc4o3)cc2)cc1,"inconclusive: 35.5 µM [inhibitor, single point]"
13,O=C(NCc1ccccc1)c1nc(S(=O)(=O)Cc2ccc(F)cc2)ncc1Cl,"inconclusive: 3.55 µM [inhibitor, full curve, poor fit]"
14,CC1CCCCC1NC(=O)c1cccc(NC2=NC3CS(=O)(=O)CC3S2)c1 (centres undefined),inactive
15,COc1cc(C(=O)Nc2ccc3c(c2)CCCN3C(=O)c2ccco2)c([N+](=O)[O-])cc1OC,"inconclusive: 12.6 µM [inhibitor, partial curve, poor fit]"
16,Cc1ccc(/C=C/c2onc(C)c2S(=O)(=O)N2CCC(C(=O)N3CCN(c4cccc(C)c4)C(C)C3)CC2)cc1 (centres undefined),"inconclusive: 4.47 µM [inhibitor, partial curve]"
17,Oc1cc(NCCN2CCOCC2)cc2cccnc12,"inconclusive: 35.5 µM [inhibitor, single point]"
18,CC(=O)Nc1sc2c(c1C(c1ccccc1Cl)N1CCN(CCO)CC1)CCCC2 (centres undefined),"inconclusive: 22.4 µM [inhibitor, single point]"
19,C1=Cc2ccccc2/C1=C\c1cccc(/C=C2\C=Cc3ccccc32)c1,"inconclusive: 35.5 µM [inhibitor, single point]"
20,Cc1cccc(-n2c(CCc3ccccc3)nnc2SCC(=O)c2ccccc2)c1,"inconclusive: 35.5 µM [inhibitor, single point]"
21,COc1ccccc1C(=O)N(Cc1nc(-c2cccc(C)c2)no1)C(C)C,inactive
22,COc1ccc(S(=O)(=O)c2cnc3cc(OC)c(OC)cc3c2N2CCCC(C)C2)cc1 (centres undefined),"inconclusive: 25.1 µM [inhibitor, single point]"
23,CCOc1ccccc1NC(=S)NCCc1ccc(F)cc1,"inconclusive: 22.4 µM [inhibitor, single point]"

row,Structure (SMILES),Potency
1,COc1ccccc1C1=NOC(C)(c2nnc(-c3cccc(Cl)c3)o2)C1 (centres undefined),"inconclusive: 35.5 µM [inhibitor, single point]"
2,S=C(NCc1ccco1)N/N=C/c1ccncc1,inactive
3,COc1cc(/C=C/C(=O)c2ccc3c(c2)OCCO3)cc(OC)c1OC,"inconclusive: 15.8 µM [inhibitor, single point]"
4,COc1ccc(C(=O)CC(=O)C(=O)Nc2cc(OC)c(OC)c(OC)c2)cc1,inactive
5,CN(C)CCOc1nc(-c2ccccc2)nc2c1oc1ccccc12,"inconclusive: 17.8 µM [inhibitor, single point]"
6,COCc1cc(C)nc2sc(C(=O)N3CCCC3)c(N)c12,"inconclusive: 11.2 µM [inhibitor, partial curve, poor fit]"
7,OCC[C@@H]1C[C@H](O)[C@@H](O)[C@@]2(OCc3ccc(CO)cc32)O1,inactive
8,CN1CCCC1CCNS(=O)(=O)c1ccc(Br)cc1 (centres undefined),"inconclusive: 0.447 µM [inhibitor, full curve, poor fit]"
9,COc1ccc(N(CC(=O)NC(C)c2ccccc2)S(=O)(=O)c2c(C)nn(C)c2C)cc1 (centres undefined),"inconclusive: 12.6 µM [inhibitor, partial curve, poor fit]"
10,CC(NC(=O)c1ccc(OC2CCN(Cc3ccccn3)CC2)cc1)c1nccs1 (centres undefined),inactive
11,CN(Cc1ccc(Cl)cc1)C(C(=O)NC1CCCCC1)c1cc2ccccc2o1 (centres undefined),"inconclusive: 35.5 µM [inhibitor, partial curve, poor fit]"
12,COc1ccc(C2=C(Nc3ccc(Br)c(C)c3)c3ccccc3C2=O)cc1,active: 14.1 µM
13,Cc1ccccc1CN1C(=O)c2ccccc2Sc2ccc(C(=O)NC3CCCCC3)cc21,inactive
14,NS(=O)(=O)c1cccc(NC(=S)NC(=O)C23CC4CC(CC(C4)C2)C3)c1,"inconclusive: 31.6 µM [inhibitor, single point]"
15,COc1ccc2[nH]c(C)c(CCNC(=S)Nc3ccc(C)cc3)c2c1,"inconclusive: 35.5 µM [inhibitor, single point]"
16,Cc1ccc(NC(=O)c2cccc(S(=O)(=O)N(C)c3ccccc3)c2)cc1S(=O)(=O)N1CCOCC1,"inconclusive: 35.5 µM [inhibitor, partial curve, poor fit]"
17,COc1ccc(CCNC(=S)Nc2ccccc2)cc1,"inconclusive: 25.1 µM [inhibitor, single point]"
18,Cc1ccc[n+](CC2OCc3ccccc3CO2)c1,inactive
19,COc1cccc(C(NC(C)=O)c2ccc3cccnc3c2O)c1 (centres undefined),"inconclusive: 2.51 µM [inhibitor, full curve, poor fit]"
20,CC1(C)CC(=O)C(C=NCCc2ccc(S(N)(=O)=O)cc2)=C(O)C1,"inconclusive: 2.24 µM [inhibitor, partial curve, poor fit]"
21,CCC(=O)N1CCc2cc(OC)c(OC)cc2C1COc1ccc(OC)cc1 (centres undefined),"inconclusive: 8.91 µM [inhibitor, partial curve, poor fit]"
22,CCOC(=O)C1=C(C)N=c2sc(=Cc3cc(Cl)c(OCC(=O)O)c(OC)c3)c(=O)n2C1c1ccccc1Cl (centres undefined),inactive
23,O=C(NCc1cccnc1)C1CC(=O)N(CCc2ccccc2)C1 (centres undefined),"inconclusive: 0.251 µM [inhibitor, full curve, poor fit]"
